# Measurements: the supplement of paper PMC8728848
# This is one part of the list.
# Columns and labels:
# Experiment in all cases: glycan array binding signal (z-score within array); higher = stronger binding
# Settings in all cases: glycan notation: IUPAC condensed, linker removed
# [1] = target: Gal(b1-3)GlcNAc(b1-6)[Gal(b1-3)]GalNAc
# How it was run: (§1)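 The binding signal is a Z-score computed within each array and averaged over linkers. Arrays of the same protein sequence at different concentrations or buffers were also averaged together. Data originate from 3228 arrays in the Consortium for Functional Glycomics database, kept only where the protein sequence was available.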
# [2] = target: Gal(b1-3)GlcNAc6S
# How it was run: as §1
# [3] = target: Gal(b1-3)[Fuc(a1-4)]GlcNAc
# How it was run: as §1
# [4] = target: Gal(b1-3)[Fuc(a1-4)]GlcNAc(b1-2)Man
# How it was run: as §1
# [5] = target: Gal(b1-3)[Fuc(a1-4)]GlcNAc(b1-2)Man(a1-3)[Gal(b1-3)[Fuc(a1-4)]GlcNAc(b1-2)Man(a1-6)]Man(b1-4)GlcNAc(b1-4)[Fuc(a1-6)]GlcNAc
# How it was run: as §1
# [6] = target: Gal(b1-3)[Fuc(a1-4)]GlcNAc(b1-3)Gal(b1-3)[Fuc(a1-4)]GlcNAc
# How it was run: as §1
# [7] = target: Gal(b1-3)[Fuc(a1-4)]GlcNAc(b1-3)Gal(b1-4)[Fuc(a1-3)]GlcNAc
# How it was run: as §1
# [8] = target: Gal(b1-3)[Fuc(a1-4)]GlcNAc(b1-6)GalNAc
# How it was run: as §1
# [9] = target: Gal(b1-3)[GlcNAc(b1-6)]GalNAc
# How it was run: as §1
# [10] = target: Gal(b1-3)[Neu5Ac(a2-6)]GalNAc
# How it was run: as §1
# [11] = target: Gal(b1-3)[Neu5Ac(a2-6)]GlcNAc(b1-4)Gal(b1-4)Glc
# How it was run: as §1
# [12] = target: Gal(b1-3)[Neu5Ac(b2-6)]GalNAc
# How it was run: as §1
# [13] = target: Gal(b1-4)Gal
# How it was run: as §1
# [14] = target: Gal(b1-4)GalNAc(a1-3)[Fuc(a1-2)]Gal(b1-4)GlcNAc
# How it was run: as §1
# [15] = target: Gal(b1-4)GalNAc(b1-3)[Fuc(a1-2)]Gal(b1-4)GlcNAc
# How it was run: as §1
# [16] = target: Gal(b1-4)Glc
# How it was run: as §1
# [17] = target: Gal(b1-4)Glc6S
# How it was run: as §1
# [18] = target: Gal(b1-4)GlcNAc
# How it was run: as §1
# [19] = target: Gal(b1-4)GlcNAc(a1-6)Gal(b1-4)GlcNAc
# How it was run: as §1
# [20] = target: Gal(b1-4)GlcNAc(b1-2)Man
# How it was run: as §1
# [21] = target: Gal(b1-4)GlcNAc(b1-2)Man(a1-3)Man(b1-4)GlcNAc(b1-4)GlcNAc
# How it was run: as §1
# [22] = target: Gal(b1-4)GlcNAc(b1-2)Man(a1-3)[Gal(b1-4)GlcNAc(b1-2)Man(a1-6)]Man(b1-4)GlcNAc(b1-4)GlcNAc
# How it was run: as §1
# [23] = target: Gal(b1-4)GlcNAc(b1-2)Man(a1-3)[Gal(b1-4)GlcNAc(b1-2)Man(a1-6)]Man(b1-4)GlcNAc(b1-4)[Fuc(a1-6)]GlcNAc
# How it was run: as §1
# [24] = target: Gal(b1-4)GlcNAc(b1-2)Man(a1-3)[Gal(b1-4)GlcNAc(b1-2)Man(a1-6)][Gal(b1-4)GlcNAc(b1-4)]Man(b1-4)GlcNAc(b1-4)[Fuc(a1-6)]GlcNAc
# How it was run: as §1
# [25] = target: Gal(b1-4)GlcNAc(b1-2)Man(a1-3)[Gal(b1-4)GlcNAc(b1-2)Man(a1-6)][GlcNAc(b1-4)]Man(b1-4)GlcNAc(b1-4)[Fuc(a1-6)]GlcNAc
# How it was run: as §1
# [26] = target: Gal(b1-4)GlcNAc(b1-2)Man(a1-3)[GlcNAc(b1-2)Man(a1-6)]Man(b1-4)GlcNAc(b1-4)GlcNAc
# How it was run: as §1
# [27] = target: Gal(b1-4)GlcNAc(b1-2)Man(a1-3)[GlcNAc(b1-4)][Gal(b1-4)GlcNAc(b1-2)Man(a1-6)]Man(b1-4)GlcNAc(b1-4)GlcNAc
# How it was run: as §1
# [28] = target: Gal(b1-4)GlcNAc(b1-2)Man(a1-3)[Man(a1-6)]Man(b1-4)GlcNAc(b1-4)GlcNAc
# How it was run: as §1
# [29] = target: Gal(b1-4)GlcNAc(b1-2)Man(a1-6)Man(b1-4)GlcNAc(b1-4)GlcNAc
# How it was run: as §1
# [30] = target: Gal(b1-4)GlcNAc(b1-2)Man(a1-6)[GlcNAc(b1-2)Man(a1-3)]Man(b1-4)GlcNAc(b1-4)GlcNAc
# How it was run: as §1
# [31] = target: Gal(b1-4)GlcNAc(b1-2)Man(a1-6)[Man(a1-3)]Man(b1-4)GlcNAc(b1-4)GlcNAc
# How it was run: as §1
# [32] = target: Gal(b1-4)GlcNAc(b1-2)[Gal(b1-4)GlcNAc(b1-4)]Man(a1-3)[Gal(b1-4)GlcNAc(b1-2)Man(a1-6)]Man(b1-4)GlcNAc(b1-4)GlcNAc
# How it was run: as §1
# [33] = target: Gal(b1-4)GlcNAc(b1-2)[Gal(b1-4)GlcNAc(b1-4)]Man(a1-3)[Gal(b1-4)GlcNAc(b1-2)[Gal(b1-4)GlcNAc(b1-6)]Man(a1-6)]Man(b1-4)GlcNAc(b1-4)GlcNAc
# How it was run: as §1
# [34] = target: Gal(b1-4)GlcNAc(b1-2)[Gal(b1-4)GlcNAc(b1-4)]Man(a1-3)[GlcNAc(b1-4)][Gal(b1-4)GlcNAc(b1-2)Man(a1-6)]Man(b1-4)GlcNAc(b1-4)GlcNAc
# How it was run: as §1
# [35] = target: Gal(b1-4)GlcNAc(b1-2)[Gal(b1-4)GlcNAc(b1-4)]Man(a1-3)[GlcNAc(b1-4)][Gal(b1-4)GlcNAc(b1-2)[Gal(b1-4)GlcNAc(b1-6)]Man(a1-6)]Man(b1-4)GlcNAc(b1-4)GlcNAc
# How it was run: as §1
# [36] = target: Gal(b1-4)GlcNAc(b1-2)[Gal(b1-4)GlcNAc(b1-6)]Man(a1-6)[Gal(b1-4)GlcNAc(b1-2)Man(a1-3)]Man(b1-4)GlcNAc(b1-4)GlcNAc
# How it was run: as §1
# [37] = target: Gal(b1-4)GlcNAc(b1-2)[Gal(b1-4)GlcNAc(b1-6)]Man(a1-6)[Gal(b1-4)GlcNAc(b1-2)Man(a1-3)]Man(b1-4)GlcNAc(b1-4)[Fuc(a1-6)]GlcNAc
# How it was run: as §1
# [38] = target: Gal(b1-4)GlcNAc(b1-2)[Gal(b1-4)GlcNAc(b1-6)]Man(a1-6)[GlcNAc(b1-4)][Gal(b1-4)GlcNAc(b1-2)Man(a1-3)]Man(b1-4)GlcNAc(b1-4)GlcNAc
# How it was run: as §1
# [39] = target: Gal(b1-4)GlcNAc(b1-2)[Gal(b1-4)GlcNAc(b1-6)]Man(a1-6)[GlcNAc(b1-4)][Gal(b1-4)GlcNAc(b1-2)[Gal(b1-4)GlcNAc(b1-4)]Man(a1-3)]Man(b1-4)GlcNAc(b1-4)[Fuc(a1-6)]GlcNAc
# How it was run: as §1
# [40] = target: Gal(b1-4)GlcNAc(b1-3)Gal(b1-3)GalNAc
# How it was run: as §1
# [41] = target: Gal(b1-4)GlcNAc(b1-3)Gal(b1-3)GlcNAc
# How it was run: as §1
# [42] = target: Gal(b1-4)GlcNAc(b1-3)Gal(b1-4)Glc
# How it was run: as §1
# [43] = target: Gal(b1-4)GlcNAc(b1-3)Gal(b1-4)GlcNAc
# How it was run: as §1
# [44] = target: Gal(b1-4)GlcNAc(b1-3)Gal(b1-4)GlcNAc(b1-2)Man(a1-3)[Gal(b1-4)GlcNAc(b1-3)Gal(b1-4)GlcNAc(b1-2)Man(a1-6)]Man(b1-4)GlcNAc(b1-4)GlcNAc
# How it was run: as §1
# [45] = target: Gal(b1-4)GlcNAc(b1-3)Gal(b1-4)GlcNAc(b1-2)Man(a1-3)[Gal(b1-4)GlcNAc(b1-3)Gal(b1-4)GlcNAc(b1-2)Man(a1-6)]Man(b1-4)GlcNAc(b1-4)[Fuc(a1-6)]GlcNAc
# How it was run: as §1
binder,measurement,setting,value
Nc3LysM (protein) QFTVPPDTTAEPNTIKTCTWWHVAGSGDSCTSIASTYGITSEQFARWDMETTDSPKNPSVATACKLTVGNSYCIENNFGQDDPPTPSISSSTLIGTATTSTTASTTTGNGISTPTPIQEGMETATTTTSSGNGITTPTPTQAGMETVGNCDRFHLVKSGDQCGTIASTYGITLANFYSWNPAVGTSCQSLWLDTYVCVRTIGFVPPKTTTTTTKKPTSTTSAGGVATPTPTQPGMETVSGCKKFHKGRGNVSTVASGDQCGTIATRYGISLANFYSWNPAVGSSCQTLWLDYYVCVGR,glycan array binding signal (z-score),[1],-0.086
same,glycan array binding signal (z-score),[2],0.277
same,glycan array binding signal (z-score),[3],0.22
same,glycan array binding signal (z-score),[4],-0.135
same,glycan array binding signal (z-score),[5],0.044
same,glycan array binding signal (z-score),[6],-0.176
same,glycan array binding signal (z-score),[7],0.21
same,glycan array binding signal (z-score),[8],-0.012
same,glycan array binding signal (z-score),[9],-0.163
same,glycan array binding signal (z-score),[10],0.008
same,glycan array binding signal (z-score),[11],0.035
same,glycan array binding signal (z-score),[12],0.011
same,glycan array binding signal (z-score),[13],-0.055
same,glycan array binding signal (z-score),[14],0.03
same,glycan array binding signal (z-score),[15],-0.236
same,glycan array binding signal (z-score),[16],-0.013
same,glycan array binding signal (z-score),[17],-0.198
same,glycan array binding signal (z-score),[18],0.015
same,glycan array binding signal (z-score),[19],-0.115
same,glycan array binding signal (z-score),[20],0.227
same,glycan array binding signal (z-score),[21],-0.159
same,glycan array binding signal (z-score),[22],-0.007
same,glycan array binding signal (z-score),[23],-0.048
same,glycan array binding signal (z-score),[24],-0.28
same,glycan array binding signal (z-score),[25],0.071
same,glycan array binding signal (z-score),[26],-0.02
same,glycan array binding signal (z-score),[27],-0.185
same,glycan array binding signal (z-score),[28],0.019
same,glycan array binding signal (z-score),[29],-0.04
same,glycan array binding signal (z-score),[30],-0.077
same,glycan array binding signal (z-score),[31],0.128
same,glycan array binding signal (z-score),[32],0.121
same,glycan array binding signal (z-score),[33],-0.122
same,glycan array binding signal (z-score),[34],-0.176
same,glycan array binding signal (z-score),[35],-0.152
same,glycan array binding signal (z-score),[36],-0.116
same,glycan array binding signal (z-score),[37],0.105
same,glycan array binding signal (z-score),[38],-0.044
same,glycan array binding signal (z-score),[39],-0.051
same,glycan array binding signal (z-score),[40],-0.041
same,glycan array binding signal (z-score),[41],-0.164
same,glycan array binding signal (z-score),[42],-0.013
same,glycan array binding signal (z-score),[43],-0.043
same,glycan array binding signal (z-score),[44],-0.064
same,glycan array binding signal (z-score),[45],-0.023
